Experimental data reported in paper PMC7089965 (Frontiers in Microbiology, 2020).
Read-outs that look alike come from different tables or passages of the source. Where a SMILES comes first, the peptide text is derived from it. [ ]: non-standard residue; d: D form. Nspe = C[C@H](NCC(=O)O)c1ccccc1; NHexGly = CCCCCCNCC(=O)O; Nlys = NCCCCNCC(=O)O

What was measured:
RAW 264.7 cells = conditions: for cytotoxicity against RAW 264.7 cells / cell viability: 64 mg/L; for cell viability: two independent experiments in triplicate; for cytotoxic activity: RAW 264.7 macrophages, as summarised in the discussion
M. tuberculosis H37Rv = conditions: 7 days, CFU enumeration, three independent experiments

For `CCCCCCNCC(=O)N(CC(=O)N(CCCCN)CC(N)=O)[C@@H](C)c1ccccc1` [BM 1], the “cytotoxicity against RAW 264.7 cells” value (RAW 264.7 cells; 24 h, MTT) was “did not show cytotoxicity”, the cell viability (RAW 264.7 cells; 24 h, MTT, RAW 264.7) was over 80% and the cytotoxic activity (RAW 264.7 cells) was under 20%.

With `CCCCCCNCC(=O)N(CC(=O)N(CCCCN)CC(=O)N(CCCCCC)CC(=O)N(CC(=O)N(CCCCN)CC(N)=O)[C@@H](C)c1ccccc1)[C@@H](C)c1ccccc1` [BM 2] (H-[NHexGly][Nspe][Nlys][NHexGly][Nspe][Nlys]-NH2) the “cytotoxicity against RAW 264.7 cells” value (RAW 264.7 cells; 24 h, MTT) was “did not show cytotoxicity”, the cell viability (RAW 264.7 cells; 24 h, MTT, RAW 264.7) was over 80% and the cytotoxic activity (RAW 264.7 cells) was under 20%. For the same molecule, the “killing of H37Rv” value (M. tuberculosis H37Rv; 2 × MIC (16 mg/L)) was over 99.9% and the “killing of H37Rv” value (M. tuberculosis H37Rv; 4 × MIC (32 mg/L)) was over 99.9%.

With `CCCCCCNCC(=O)N(CC(=O)N(CCCCN)CC(=O)N(CCCCCC)CC(=O)N(CC(=O)N(CCCCN)CC(=O)N(CCCCCC)CC(=O)N(CC(=O)N(CCCCN)CC(N)=O)[C@@H](C)c1ccccc1)[C@@H](C)c1ccccc1)[C@@H](C)c1ccccc1` [BM 3] (H-[NHexGly][Nspe][Nlys][NHexGly][Nspe][Nlys][NHexGly][Nspe][Nlys]-NH2) the “reduction in cell viability” value (RAW 264.7 cells; 32 mg/L, 24 h, MTT, RAW 264.7) was 50%.
